PMC4336329 (PLoS ONE, 2015)
Out of some 310,000 compounds screened, about 2,200 (0.71%) showed an effect of 50% or more. The effect is printed as a negative number. Some of the results follow.

What follows are molecules tested against human ether-à-go-go-related gene (hERG) potassium channel (human, UniProt Q12809) (assay: primary screen, population patch clamp on CHO cells stably expressing hERG).
Sequence of human ether-à-go-go-related gene (hERG) potassium channel (Q12809 whole entry, looked up): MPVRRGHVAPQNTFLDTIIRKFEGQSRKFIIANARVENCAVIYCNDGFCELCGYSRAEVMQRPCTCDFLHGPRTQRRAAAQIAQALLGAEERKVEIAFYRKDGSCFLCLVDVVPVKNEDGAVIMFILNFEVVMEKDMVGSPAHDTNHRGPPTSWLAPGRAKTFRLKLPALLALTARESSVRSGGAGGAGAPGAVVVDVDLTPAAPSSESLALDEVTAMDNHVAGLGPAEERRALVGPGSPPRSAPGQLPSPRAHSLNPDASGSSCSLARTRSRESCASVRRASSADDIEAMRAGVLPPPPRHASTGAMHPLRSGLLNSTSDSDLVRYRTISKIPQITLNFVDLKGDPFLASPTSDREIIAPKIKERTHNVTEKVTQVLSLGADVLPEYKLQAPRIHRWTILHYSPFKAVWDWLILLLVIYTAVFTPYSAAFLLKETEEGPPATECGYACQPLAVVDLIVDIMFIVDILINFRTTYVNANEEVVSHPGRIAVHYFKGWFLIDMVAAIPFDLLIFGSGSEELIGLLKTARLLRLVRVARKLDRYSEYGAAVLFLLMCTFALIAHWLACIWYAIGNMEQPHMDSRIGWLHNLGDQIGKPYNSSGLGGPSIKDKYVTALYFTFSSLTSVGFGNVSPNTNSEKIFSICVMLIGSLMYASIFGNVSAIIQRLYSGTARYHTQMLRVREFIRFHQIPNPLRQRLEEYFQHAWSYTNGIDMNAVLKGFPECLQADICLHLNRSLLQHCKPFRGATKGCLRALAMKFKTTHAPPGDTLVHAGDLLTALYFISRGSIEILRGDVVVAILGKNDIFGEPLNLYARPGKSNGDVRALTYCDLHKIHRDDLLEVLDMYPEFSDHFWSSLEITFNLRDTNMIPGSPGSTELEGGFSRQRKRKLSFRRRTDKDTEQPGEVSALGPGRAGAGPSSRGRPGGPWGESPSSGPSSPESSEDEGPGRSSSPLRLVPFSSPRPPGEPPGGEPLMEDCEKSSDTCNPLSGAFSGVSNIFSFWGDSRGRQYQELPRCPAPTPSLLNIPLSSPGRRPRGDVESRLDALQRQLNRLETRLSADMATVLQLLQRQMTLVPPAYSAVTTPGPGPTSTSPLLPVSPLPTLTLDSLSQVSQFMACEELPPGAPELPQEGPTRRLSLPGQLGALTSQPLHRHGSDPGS
For `COc1ccccc1NC(=O)c1ccc(N)cc1`, the “hERG current change (%, negative = inhibition) at 1uM” value was 9.8%. In the case of `CC1CN(C(=O)c2cccc(COc3ccccc3Cl)c2)CC(C)O1` (stereo not drawn), the “hERG current change (%, negative = inhibition) at 1uM” value is reported as 4.28%. In the case of `O=C(Nc1sc2c(c1C(=O)O)CCCCC2)c1ccccc1F`, the “hERG current change (%, negative = inhibition) at 1uM” value is reported as 1.44%. `COc1cc(C2CC(=O)C3=C(C2)Nc2ncnn2C3c2cccs2)cc(OC)c1OC` (stereo not drawn) was tested, and the “hERG current change (%, negative = inhibition) at 1uM” value was 8.89%. `Cc1ccc(NC(=O)c2cccc(S(=O)(=O)N3CCCC3)c2)nc1` was tested, and the “hERG current change (%, negative = inhibition) at 1uM” value was 4.12%. For `O=C(Nc1ccc(C(F)(F)F)cc1)C1CCCCN1S(=O)(=O)c1ccccc1` (stereo not drawn), the “hERG current change (%, negative = inhibition) at 1uM” value was -3.36%. For `Cc1ccc(-c2nc(-c3cccnc3)sc2CC(=O)Nc2ccc3nc(C)sc3c2)cc1`, the “hERG current change (%, negative = inhibition) at 1uM” value was 1.31%. In the case of `Cc1nc(N2CCC(C(N)=O)CC2)c2nnn(Cc3ccccc3)c2n1`, the “hERG current change (%, negative = inhibition) at 1uM” value is reported as 16%. For `COc1ccc(/C=C(/CC(=O)NCc2ccc(Cl)cc2)c2nc3ccccc3s2)cc1`, the “hERG current change (%, negative = inhibition) at 1uM” value was 11.1%. In the case of `CC1CCCCN1S(=O)(=O)c1ccc(N(C(=O)c2cnccn2)C(C(=O)NC2CCCCC2)c2cccs2)cc1` (stereo not drawn), the “hERG current change (%, negative = inhibition) at 1uM” value is reported as 6.26%. `CCn1cc(/C=C/C(=O)Nc2ccn(Cc3c(F)c(F)cc(F)c3F)n2)cn1` was tested, and the “hERG current change (%, negative = inhibition) at 1uM” value was 9.01%. For `CC1(C)OC(=O)C=C[C@]2(C)[C@H]3CC[C@@]4(C)[C@H](c5ccoc5)OC(=O)[C@H]5O[C@]54[C@]3(C)C(=O)C[C@@H]12`, the “hERG current change (%, negative = inhibition) at 1uM” value was 9.45%. `CN(C)c1ccc(N/C=C/C(=O)c2ccco2)cc1` was tested, and the “hERG current change (%, negative = inhibition) at 1uM” value was 14%. With `COc1ccc(CNC(=O)C(OC(C)=O)c2ccccn2)cc1` (stereo not drawn) the “hERG current change (%, negative = inhibition) at 1uM” value was 9.68%. `CC1(C(=O)O)CCC(C(N)=O)C1(C)C` (stereo not drawn) was tested, and the “hERG current change (%, negative = inhibition) at 1uM” value was 8.16%. For `COc1ccccc1-n1cnc2cc(C(=O)NCC3CCCO3)ccc21` (stereo not drawn), the “hERG current change (%, negative = inhibition) at 1uM” value was -0.991%. `O=C(CCCSc1nc2ccccc2[nH]1)NCc1ccccc1Cl` was tested, and the “hERG current change (%, negative = inhibition) at 1uM” value was 9.01%. In the case of `COC(=O)CSc1nc(COc2ccccc2)nc2ccccc12`, the “hERG current change (%, negative = inhibition) at 1uM” value is reported as 12.5%. For `CCOc1ccc(N2C(=O)CC(N3CCC(O)(c4ccc(Br)cc4)CC3)C2=O)cc1` (stereo not drawn), the “hERG current change (%, negative = inhibition) at 1uM” value was -22.2%. For `Cc1ccc(S(=O)(=O)NCC(=O)N2CCC(C)CC2)cc1`, the “hERG current change (%, negative = inhibition) at 1uM” value was 9.16%. In the case of `COc1cccc(OC)c1OCCNCCO`, the “hERG current change (%, negative = inhibition) at 1uM” value is reported as 19%. `O=C(NC(=S)Nc1ccccc1Cl)C1CC1` was tested, and the “hERG current change (%, negative = inhibition) at 1uM” value was 17.1%. For `Cc1cccc(N(C(=O)Nc2ccc(Cl)cc2)C2=NCC(C)S2)n1` (stereo not drawn), the “hERG current change (%, negative = inhibition) at 1uM” value was 8.99%. In the case of `COc1cccc(C(=O)Nc2ccc(N3CCCC3)cc2)c1`, the “hERG current change (%, negative = inhibition) at 1uM” value is reported as 13.8%. `Cc1ccc(-n2ncc3c(=O)n(CC(=O)Nc4cccc(Cl)c4)cnc32)cc1C` was tested, and the “hERG current change (%, negative = inhibition) at 1uM” value was 12%. `COc1ccccc1OCCNC(=O)c1cccs1` was tested, and the “hERG current change (%, negative = inhibition) at 1uM” value was 3.03%. For `CCOC(=O)c1c(-n2cnnn2)sc2c1CCCC2`, the “hERG current change (%, negative = inhibition) at 1uM” value was 10.1%. `COc1ccc([N+](=O)[O-])cc1NC(=O)C(C)N1CCCC1` (stereo not drawn) was tested, and the “hERG current change (%, negative = inhibition) at 1uM” value was 17%. `Cc1cc(C)c2[nH]c(=O)c(C(c3nnnn3CC3CCCO3)N3CCCC(C)C3)cc2c1` (stereo not drawn) was tested, and the “hERG current change (%, negative = inhibition) at 1uM” value was 8.26%. In the case of `Cc1csc(NC(=O)c2cn3ccccc3n2)n1`, the “hERG current change (%, negative = inhibition) at 1uM” value is reported as -1%. For `COc1ccc(C2c3ccc(O)cc3Oc3ncn4nc(-c5ccco5)nc4c32)cc1OC` (stereo not drawn), the “hERG current change (%, negative = inhibition) at 1uM” value was 13.1%. With `Cc1nnc(SCC(=O)NC2CCC(C)CC2)s1` (stereo not drawn) the “hERG current change (%, negative = inhibition) at 1uM” value was 4.9%. With `Cc1ccc(-c2noc(CN(C(=O)CCCCCN3C(=O)c4ccccc4C3=O)C(C)C)n2)cc1` the “hERG current change (%, negative = inhibition) at 1uM” value was 2.48%. With `CCOC(=O)C1(Cc2cccc(OC)c2)CCN(Cc2cccn2-c2nccs2)CC1` the “hERG current change (%, negative = inhibition) at 1uM” value was -77.7%. With `CC1CN(C(=O)COC(=O)c2ccc(O)cc2)CC(C)O1` (stereo not drawn) the “hERG current change (%, negative = inhibition) at 1uM” value was 13.3%. `Cc1cccc(-c2noc(CNC(=O)Nc3ccc(F)cc3)n2)c1` was tested, and the “hERG current change (%, negative = inhibition) at 1uM” value was 11.4%. For `O=S(=O)(c1ccc(-c2nnc(SCc3ccccc3)o2)cc1)N1CCCC1`, the “hERG current change (%, negative = inhibition) at 1uM” value was 2.46%. With `Nc1nc(NCC2CCCO2)nc(NCC2CCCO2)c1[N+](=O)[O-]` (stereo not drawn) the “hERG current change (%, negative = inhibition) at 1uM” value was 1.3%. For `O=S1(=O)CCOCCCN1Cc1ccccc1Br`, the “hERG current change (%, negative = inhibition) at 1uM” value was 11.2%. `CC(=O)Nc1c2c(nn1-c1cccc(Cl)c1)CS(=O)C2` (stereo not drawn) was tested, and the “hERG current change (%, negative = inhibition) at 1uM” value was 11.9%. With `CC(=O)OC[C@]1(OC(C)=O)C[C@@]23CC[C@H]4[C@@](C)(CCC[C@@]4(C)C(=O)O)[C@@H]2CC[C@@H]1C3` the “hERG current change (%, negative = inhibition) at 1uM” value was 12.1%. `Cc1cc(OCC(=O)NC2CCS(=O)(=O)C2)c2c3c(c(=O)oc2c1)CCC3` (stereo not drawn) was tested, and the “hERG current change (%, negative = inhibition) at 1uM” value was 6.44%. For `COc1ccc(CN(C(=O)c2cccc(OC)c2)C2CCS(=O)(=O)C2)cc1` (stereo not drawn), the “hERG current change (%, negative = inhibition) at 1uM” value was 5.26%. For `CCCCCCCCNC1=CC(=O)CC(C)(C)C1`, the “hERG current change (%, negative = inhibition) at 1uM” value was 15.4%. For `O=S(=O)(Nc1ccc(N2CCOCC2)cc1)c1ccc2ccccc2c1`, the “hERG current change (%, negative = inhibition) at 1uM” value was 5.12%.
